Test results as given in US5216124A, “Substituted cyclic tetrapeptides” (G. D. Searle & Co., priority 1991, dated 1993).
Where a name gives a salt, the structure may show the parent alone. Read-outs that look alike come from different tables or passages of the source. At least one compound was matched to its structure with a doubt left. Positions of bridges follow the written chain, without caps; N, C: chain ends. Non-standard residues stand in square brackets, D forms with d. Residues, ends and D or L forms follow the SMILES beside them. Phe(4-F) = N[C@@H](Cc1ccc(F)cc1)C(=O)O; Dmt = Cc1cc(O)cc(C)c1C[C@H](N)C(=O)O; NMeCha = CN[C@@H](CC1CCCCC1)C(=O)O; NMeF = CN[C@@H](Cc1ccccc1)C(=O)O; 2Thi = N[C@@H](Cc1cccs1)C(=O)O; Cha = N[C@@H](CC1CCCCC1)C(=O)O; dPen = CC(C)(S)[C@@H](N)C(=O)O

Experiments:
μ opioid receptors = μ opioid receptors (Rattus norvegicus, UniProt P33535); experiment: Opiate Binding Assay, displacement of 3[H]-DAMPGO; settings: read-out: Mean IC50 Value (μ), rat forebrain membranes, 3[H]-DAMPGO 2.0 nM, 37° C., pH 7.4
δ opioid receptors = δ opioid receptors (Rattus norvegicus, UniProt P33533); experiment: Opiate Binding Assay, displacement of 3[H]-DSLET; settings: read-out: Mean IC50 Value (δ), rat forebrain membranes, 3[H]-DSLET 1.0 nM, 37° C., pH 7.4
δ opioid receptors, sequence (P33533 whole entry): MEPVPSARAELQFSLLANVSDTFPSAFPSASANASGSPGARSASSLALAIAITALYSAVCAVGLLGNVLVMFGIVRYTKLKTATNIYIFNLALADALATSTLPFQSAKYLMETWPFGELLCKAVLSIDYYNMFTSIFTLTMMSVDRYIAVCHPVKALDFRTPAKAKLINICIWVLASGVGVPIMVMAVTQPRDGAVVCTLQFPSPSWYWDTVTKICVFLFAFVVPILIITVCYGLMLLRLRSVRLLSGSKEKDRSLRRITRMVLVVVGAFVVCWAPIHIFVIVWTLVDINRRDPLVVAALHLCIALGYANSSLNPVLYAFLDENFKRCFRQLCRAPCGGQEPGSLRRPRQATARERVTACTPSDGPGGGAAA

μ opioid receptors, sequence (P33535 whole entry): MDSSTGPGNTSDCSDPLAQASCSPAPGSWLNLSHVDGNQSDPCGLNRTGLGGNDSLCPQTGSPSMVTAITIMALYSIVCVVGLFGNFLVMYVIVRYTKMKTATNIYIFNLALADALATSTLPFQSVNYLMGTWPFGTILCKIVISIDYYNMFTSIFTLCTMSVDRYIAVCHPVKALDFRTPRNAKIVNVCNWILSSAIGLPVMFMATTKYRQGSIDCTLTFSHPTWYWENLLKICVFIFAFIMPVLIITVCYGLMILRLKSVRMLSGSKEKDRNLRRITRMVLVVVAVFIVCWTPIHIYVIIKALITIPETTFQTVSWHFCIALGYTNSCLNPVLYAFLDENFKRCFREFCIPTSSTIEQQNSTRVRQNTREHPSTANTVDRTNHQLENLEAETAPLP

| SMILES | IC50 (μ opioid receptors) | IC50 (δ opioid receptors) | IC50 (μ opioid receptors; monohydrochloride) | IC50 (δ opioid receptors; monohydrochloride) |
| --- | --- | --- | --- | --- |
| Cc1cc(O)ccc1CC(N)C(=O)N[C@@H]1CSSC(C)(C)[C@H](C(=O)O)NC(=O)[C@H](Cc2ccccc2)NC1=O (single isomer, unassigned) [Example 5 (Diastereomer A)] | 96 nM | 2 nM |  |  |
| Cc1cc(O)ccc1CC(N)C(=O)N[C@@H]1CSSC(C)(C)[C@H](C(=O)O)NC(=O)[C@H](Cc2ccccc2)NC1=O (single isomer, unassigned) [Example 5 (Diastereomer B)] | 2920 nM | 195 nM |  |  |
| COC(=O)[C@@H]1NC(=O)[C@H](Cc2ccccc2)NC(=O)C(NC(=O)[C@@H](N)Cc2c(C)cc(O)cc2C)CCSSC1(C)C (single isomer, unassigned) [Example 72, 2,6-dimethyl-L-tyrosylhomocysteinyl-L-phenylalanyl-3-mercapto-D-valine, cyclic (2→4)-disulfide, methyl ester, monohydrochloride] |  |  | 16 nM | 39 nM |
| COC(=O)[C@@H]1NC(=O)[C@H](Cc2ccccc2)NC(=O)C(NC(=O)[C@@H](N)Cc2c(C)cc(O)cc2C)CCSSC1(C)C (single isomer, unassigned) [Example 73, 2,6-dimethyl-L-tyrosylhomocysteinyl-L-phenylalanyl-3-mercapto-D-valine, cyclic (2→4)-disulfide, methyl ester, monohydrochloride] |  |  | 63 nM | 618 nM |
| Cc1ccc(CC(N)C(=O)N[C@@H]2CSSC(C)(C)[C@H](C(=O)O)NC(=O)[C@H](Cc3ccccc3)NC2=O)c(C)c1O (single isomer, unassigned) [Example 81 (Diastereomer A), 3-hydroxy-2,4-dimethylphenylalanyl-D-cysteinyl-L-phenylalanyl-3-mercapto-D-valine, cyclic (2→4)-disulfide, monohydrochloride] |  |  | 112 nM | 1140 nM |
| Cc1ccc(CC(N)C(=O)N[C@@H]2CSSC(C)(C)[C@H](C(=O)O)NC(=O)[C@H](Cc3ccccc3)NC2=O)c(C)c1O (single isomer, unassigned) [Example 81 (Diastereomer B), 3-hydroxy-2,4-dimethylphenylalanyl-D-cysteinyl-L-phenylalanyl-3-mercapto-D-valine, cyclic (2→4)-disulfide, monohydrochloride] |  |  | 1370 nM | 72 nM |
| Cc1cc(O)c(C)c(C)c1CC(N)C(=O)N[C@@H]1CSSC(C)(C)[C@H](C(=O)O)NC(=O)[C@H](Cc2ccccc2)NC1=O (single isomer, unassigned) [Example 82 (Diastereomer A), 2,3,6-trimethyltyrosyl-D-cysteinyl-L-phenylalanyl-3-mercapto-D-valine, cyclic (2→4)-disulfide, monohydrochloride] |  |  |  | 252 nM |
| Cc1cc(O)c(C)c(C)c1CC(N)C(=O)N[C@@H]1CSSC(C)(C)[C@H](C(=O)O)NC(=O)[C@H](Cc2ccccc2)NC1=O (single isomer, unassigned) [Example 82 (Diastereomer B), 2,3,6-trimethyltyrosyl-D-cysteinyl-L-phenylalanyl-3-mercapto-D-valine, cyclic (2→4)-disulfide, monohydrochloride] | 163 nM |  |  | 2 nM |
| COC(=O)[C@@H]1NC(=O)[C@H](Cc2ccccc2)NC(=O)[C@H](NC(=O)[C@@H](N)Cc2c(C)cc(O)cc2C)CSSC1(C)C [Example 25, 2,6-dimethyl-L-tyrosyl-D-cysteinyl-L-phenylalanyl-3-mercapto-D-valine, cyclic (2→4)-disulfide. methyl ester, monohydrochloride] (H-[Dmt][dC]F[dPen]-OMe; disulfide 2-4) | 2.3 nM | 1.9 nM |  |  |
| COC(=O)[C@@H]1NC(=O)[C@H](Cc2ccccc2)N(C)C(=O)[C@H](NC(=O)[C@@H](N)Cc2c(C)cc(O)cc2C)CSSC1(C)C [Example 39, 2,6-dimethyl-L-tyrosyl-D-cysteinyl-N-methyl-L-phenylalanyl-3-mercapto-D-valine, cyclic (2→4)-disulfide, methyl ester, monohydrochloride] (H-[Dmt][dC][NMeF][dPen]-OMe; disulfide 2-4) | 143 nM | 24 nM |  |  |
| COC(=O)[C@@H]1NC(=O)[C@H](CC2CCCCC2)NC(=O)[C@H](NC(=O)[C@@H](N)Cc2c(C)cc(O)cc2C)CSSC1(C)C [Example 46, 2,6-dimethyl-L-tyrosyl-D-cysteinyl-3-cyclohexyl-L-alanyl-3-mercapto-D-valine, cyclic (2→4)-disulfide, methyl ester, monohydrochloride] (H-[Dmt][dC][Cha][dPen]-OMe; disulfide 2-4) | 4.6 nM | 7.8 nM |  |  |
| COC(=O)[C@@H]1NC(=O)[C@H](CC2CCCCC2)N(C)C(=O)[C@H](NC(=O)[C@@H](N)Cc2c(C)cc(O)cc2C)CSSC1(C)C [Example 53, 2,6-dimethyl-L-tyrosyl-D-cysteinyl-3-cyclohexyl-N-methyl-L-alanyl-3-mercapto-D-valine, cyclic (2→4)-disulfide, methyl ester, monohydrochloride] (H-[Dmt][dC][NMeCha][dPen]-OMe; disulfide 2-4) | 163 nM | 13 nM |  |  |
| COC(=O)[C@@H]1NC(=O)[C@H](Cc2cccs2)NC(=O)[C@H](NC(=O)[C@@H](N)Cc2c(C)cc(O)cc2C)CSSC1(C)C [Example 60, 2,6-dimethyl-L-tyrosyl-D-cysteinyl-3-(2-thienyl)-L-alanyl-3-mercapto-D-valine, cyclic (2→4)-disulfide, methyl ester, monohydrochloride] (H-[Dmt][dC][2Thi][dPen]-OMe; disulfide 2-4) | 1.8 nM | 1.3 nM |  |  |
| COC(=O)[C@@H]1NC(=O)[C@H](Cc2ccc(F)cc2)NC(=O)[C@H](NC(=O)[C@@H](N)Cc2c(C)cc(O)cc2C)CSSC1(C)C [Example 67, 2,6-dimethyl-L-tyrosyl-D-cysteinyl-4-fluoro-L-phenylalanyl-3-mercapto-D-valine, cyclic (2→4)-disulfide, methyl ester, monohydrochloride] (H-[Dmt][dC][Phe(4-F)][dPen]-OMe; disulfide 2-4) | 275 nM | 114 nM |  |  |
